Among all 310,000 compounds or so, about 2,200 (0.71%) showed an effect of 50% or more. Effects have a minus sign here. This is one part of the list.

The target in this experiment is human ether-à-go-go-related gene (hERG) potassium channel (human, UniProt Q12809). Description: primary screen, population patch clamp on CHO cells stably expressing hERG.
human ether-à-go-go-related gene (hERG) potassium channel, sequence (Q12809 whole entry, looked up): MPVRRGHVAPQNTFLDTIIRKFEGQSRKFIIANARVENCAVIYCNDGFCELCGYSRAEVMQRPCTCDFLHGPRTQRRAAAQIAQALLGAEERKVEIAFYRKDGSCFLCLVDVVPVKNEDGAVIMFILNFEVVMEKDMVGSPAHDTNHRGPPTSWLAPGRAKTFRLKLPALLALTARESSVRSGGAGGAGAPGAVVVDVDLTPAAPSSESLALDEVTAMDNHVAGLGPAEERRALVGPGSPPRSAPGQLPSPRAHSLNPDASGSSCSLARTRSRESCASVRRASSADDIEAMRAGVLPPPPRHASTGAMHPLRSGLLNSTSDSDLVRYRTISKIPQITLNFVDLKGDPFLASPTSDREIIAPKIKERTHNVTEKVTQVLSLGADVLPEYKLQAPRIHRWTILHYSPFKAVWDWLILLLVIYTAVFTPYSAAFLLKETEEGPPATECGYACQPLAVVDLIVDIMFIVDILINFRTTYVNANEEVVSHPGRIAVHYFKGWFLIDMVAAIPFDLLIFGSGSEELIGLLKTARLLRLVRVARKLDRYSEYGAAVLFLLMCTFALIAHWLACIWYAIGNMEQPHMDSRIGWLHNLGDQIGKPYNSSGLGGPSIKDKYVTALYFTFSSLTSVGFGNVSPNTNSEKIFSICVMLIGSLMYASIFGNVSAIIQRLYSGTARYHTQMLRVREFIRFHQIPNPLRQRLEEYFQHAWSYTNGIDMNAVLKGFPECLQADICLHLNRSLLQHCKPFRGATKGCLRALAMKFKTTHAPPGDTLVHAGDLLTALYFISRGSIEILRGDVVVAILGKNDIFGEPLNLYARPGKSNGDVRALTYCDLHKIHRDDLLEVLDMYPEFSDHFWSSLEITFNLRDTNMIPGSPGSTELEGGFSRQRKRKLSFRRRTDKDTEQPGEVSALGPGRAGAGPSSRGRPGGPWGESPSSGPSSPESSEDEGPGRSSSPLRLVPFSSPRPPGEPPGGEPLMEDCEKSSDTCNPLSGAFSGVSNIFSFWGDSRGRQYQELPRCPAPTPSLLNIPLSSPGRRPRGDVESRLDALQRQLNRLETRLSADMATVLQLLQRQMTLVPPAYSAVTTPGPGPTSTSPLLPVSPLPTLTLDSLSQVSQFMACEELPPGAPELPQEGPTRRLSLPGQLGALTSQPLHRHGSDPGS
For the compound `CN1CCc2c(c3c(n2C)CCN(C)C3c2ccc(F)cc2)C1c1ccc(F)cc1.Cl` (centres unmarked), the “hERG current change (%, negative = inhibition) at 1uM” value was 7.99%.

Regarding `CC(=O)Nc1ccc(/C=N/N2C(=O)NC(C)(c3ccc(OC(F)F)cc3)C2=O)cc1` (centres unmarked), the “hERG current change (%, negative = inhibition) at 1uM” value is on record as 6.48%.

In the case of `COc1ccc(N(CC(=O)NCc2cccnc2)S(=O)(=O)c2ccccc2)c(OC)c1`, the “hERG current change (%, negative = inhibition) at 1uM” value is reported as 1.1%.

Turning to `O=C(Nc1ccc(Cl)cc1C(=O)NCc1cccnc1)c1ccc(Cl)cc1Cl`, the “hERG current change (%, negative = inhibition) at 1uM” value stood at 9.54%.

Turning to `CCNC(=S)N1CCn2c(nc3ccccc32)C1`, the “hERG current change (%, negative = inhibition) at 1uM” value worked out at 5.6%.

On to `CCCCn1c(N)c(N(C)C(=O)c2cc3c(s2)CCCCC3)c(=O)[nH]c1=O`, for which the “hERG current change (%, negative = inhibition) at 1uM” value stood at 17%.

For the compound `Cc1ccc(S(=O)(=O)Nc2cc(NC(=O)CN3CCOCC3)ccc2Cl)cc1.Cl`, the “hERG current change (%, negative = inhibition) at 1uM” value is 8.3%.

Consider `O=C(COC(=O)c1ccc2ccccc2n1)c1ccccc1`, for which the “hERG current change (%, negative = inhibition) at 1uM” value was 3.14%.

Take `Cc1ccc([N+](=O)[O-])c(C(=O)N/N=C/c2cccs2)c1`: the “hERG current change (%, negative = inhibition) at 1uM” value is reported as -1.87%.

On to `Cc1cnc(C(=O)Nc2ccc(C)c(S(=O)(=O)N(C)C)c2)cn1`, for which the “hERG current change (%, negative = inhibition) at 1uM” value is recorded as -4.39%.

As for `CN(C)c1nc(NC(C)(C)C)nc(NC(C)(C)C)n1`, the “hERG current change (%, negative = inhibition) at 1uM” value worked out at 5.18%.

For the compound `COc1cccc(C(=O)Nc2cc(-c3cn4cccnc4n3)ccc2C)c1`, the “hERG current change (%, negative = inhibition) at 1uM” value is -7.14%.

Take `CCOc1ccc(-c2nc(-c3ccccc3)no2)cc1OCC`: the “hERG current change (%, negative = inhibition) at 1uM” value is -5.62%.

On to `CCc1ccc(NC(=O)c2sccc2-n2cccc2)cc1`, for which the “hERG current change (%, negative = inhibition) at 1uM” value amounted to 0.493%.

On to `O=C(NC(=S)N1CCN(c2ccccn2)CC1)c1ccccc1`, for which the “hERG current change (%, negative = inhibition) at 1uM” value worked out at 5.74%.

For the compound `Cc1ccc(S(=O)(=O)N(C)CC(=O)N(CC(C)C)C2CCS(=O)(=O)C2)cc1` (centres unmarked), the “hERG current change (%, negative = inhibition) at 1uM” value came to 7.26%.

As to `NS(=O)(=O)c1ccc(NC(=O)CCCCC(=O)Nc2ccc(S(N)(=O)=O)cc2)cc1`, the “hERG current change (%, negative = inhibition) at 1uM” value is reported as 7.75%.

As to `CCOC(=O)c1cnn(-c2ccccc2)c1N`, the “hERG current change (%, negative = inhibition) at 1uM” value is reported as 7.33%.

On to `COc1ccc(CN2C(=O)CCC2(C)C(=O)NC2CCCCC2)c(OC)c1` (centres unmarked), for which the “hERG current change (%, negative = inhibition) at 1uM” value was 6.89%.

Turning to `CC(=O)Cn1c(CN2CC(C)CC(C)C2)nc2c1c(=O)n(C)c(=O)n2C` (centres unmarked), the “hERG current change (%, negative = inhibition) at 1uM” value amounted to 4.72%.

Consider `Nc1c(Br)c(=O)[nH]c(=O)n1-c1ccccc1`, for which the “hERG current change (%, negative = inhibition) at 1uM” value amounted to 11.2%.

`CCOC(=O)c1nc2cc3n(c(C)c-2c1C)C(C)C(CC)=C3C.Cl` (centres unmarked): the “hERG current change (%, negative = inhibition) at 1uM” value is -39.5%.

With `COc1ccc(CCNC(=O)c2cccnc2Cl)cc1OC`, the “hERG current change (%, negative = inhibition) at 1uM” value stood at 12.2%.

With `Cc1ccc(N2CCN(/N=C/C=C/c3ccccc3)CC2)cc1`, the “hERG current change (%, negative = inhibition) at 1uM” value is recorded as -3.44%.

`COc1ccc2nc(NC(=O)c3sc4nc(C)cc(C)c4c3N)sc2c1`: the “hERG current change (%, negative = inhibition) at 1uM” value is recorded as 6.14%.

For `O=C(NCCc1ccc(F)cc1)C(=O)NCC1CCCN1S(=O)(=O)c1ccccc1` (centres unmarked), the “hERG current change (%, negative = inhibition) at 1uM” value is -19%.

With `CC(=O)c1c(C)[nH]c(C(=O)OCC(=O)c2ccc(C)s2)c1C`, the “hERG current change (%, negative = inhibition) at 1uM” value is listed as 6.13%.

As to `Cc1nc2nc(-c3ccc(Cl)cc3)cn2nc1C`, the “hERG current change (%, negative = inhibition) at 1uM” value is recorded as 10.3%.

For `COc1ccccc1-c1nnc(SCC(=O)NCc2ccco2)n1N`, the “hERG current change (%, negative = inhibition) at 1uM” value worked out at 16.9%.

Regarding `Cc1n[nH]c(C)c1CCNCc1ccc(OCC(O)CN2CCCCC2)cc1` (centres unmarked), the “hERG current change (%, negative = inhibition) at 1uM” value is on record as -6.91%.

As for `Cc1ccc(CNC(=O)CS(=O)Cc2nc(-c3ccccc3C)oc2C)cc1` (centres unmarked), the “hERG current change (%, negative = inhibition) at 1uM” value was determined as 5.91%.

Turning to `COc1ccc(/C=C2\N=C(c3ccccc3)N(c3ccc(C(=O)O)cc3)C2=O)cc1OC`, the “hERG current change (%, negative = inhibition) at 1uM” value is 7.37%.

Regarding `O=C(NC(=S)Nc1ccc(CN2CCOCC2)cc1)c1cccc([N+](=O)[O-])c1`, the “hERG current change (%, negative = inhibition) at 1uM” value was found to be 12.9%.

For `CC(C)Oc1ccc(C2CC(=O)NC3=C2C(=O)CCC3)cc1` (centres unmarked), the “hERG current change (%, negative = inhibition) at 1uM” value is 14.8%.

As for `Cc1ccc(NC(=O)CSCC(=O)NCCc2ccccn2)c(C)c1`, the “hERG current change (%, negative = inhibition) at 1uM” value turned out to be 16.1%.

Turning to `CC(C)S(=O)(=O)c1ccc(C(=O)Nc2ccc(F)cc2F)cn1`, the “hERG current change (%, negative = inhibition) at 1uM” value was 4.51%.

In the case of `COc1ccc(OC)c(Nc2nc(N)c([N+](=O)[O-])c(N3CCOCC3)n2)c1`, the “hERG current change (%, negative = inhibition) at 1uM” value is reported as 13.3%.

Turning to `Cc1ccc(S(=O)(=O)N(CC(=O)NCCSc2ccccn2)c2ccccc2F)cc1`, the “hERG current change (%, negative = inhibition) at 1uM” value is on record as 2.6%.

As for `O=C(/C=C/c1ccccc1)Oc1ccccc1C(=S)N1CCOCC1`, the “hERG current change (%, negative = inhibition) at 1uM” value turned out to be 7.89%.

Take `CCOc1ccc(NS(=O)(=O)N(C)C)cc1`: the “hERG current change (%, negative = inhibition) at 1uM” value worked out at 4.48%.

With `CCCC(=O)NC(=S)Nc1cccc(NC(=O)c2ccccc2Cl)c1`, the “hERG current change (%, negative = inhibition) at 1uM” value is given as 13.5%.

With `CCC(C)(C)NC(=O)CN(C(=O)CCC(=O)Nc1ccccn1)c1ccc(F)c(Cl)c1`, the “hERG current change (%, negative = inhibition) at 1uM” value was 11.2%.

For `O=C(NCc1cccs1)c1ccc(CS(=O)(=O)c2ccc(Cl)cc2)o1`, the “hERG current change (%, negative = inhibition) at 1uM” value is listed as -8.45%.

For `CSc1cccc(NC(=O)C2CCN(S(=O)(=O)c3ccc4c(c3)NC(=O)CO4)CC2)c1`, the “hERG current change (%, negative = inhibition) at 1uM” value is given as 17.7%.

The record behind these values is article PMC4336329 (PLoS ONE, 2015).
